Reference: PubChem BioAssay AID686979 (National Center for Advancing Translational Sciences (NCATS), 2013)
“And” between values parts separate entries of the source, which are not always exact repeats. Equal values may be shown once. The whole screen tested about 420,000 compounds, of which about 50,000 (12%) were called active. The inconclusive results got no clear call from the source; some entries with a clear call stand among them for comparison. Calls come from the whole dose curve; as a rule, active = well fitted inhibition curve with a large enough effect; inconclusive = small, poorly fitted or top-dose-only effect; inactive = flat fitted curve, though single readings scatter. Potencies beside an inconclusive call are fits to weak or partial responses and may not hold up.

assay: qHTS for Inhibitors of human tyrosyl-DNA phosphodiesterase 1 (TDP1): qHTS in cells in presence of CPT; details: chicken DT40 Tdp1-/-;hTDP1 cells + 20 nM CPT, ATP luminescence, 48 h; activity change, negative = growth inhibition: at 46.2 µM (top of the series) unless noted; note: nearly all actives have a fitted effect of over 55% in size
Summary of the method: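 Chicken DT40 Tdp1-/- cells complemented with human TDP1, 400 cells/well, exposed to compounds plus 20 nM camptothecin for at least 48 h at 37 C; viability read as ATP content by CellTiter-Glo luminescence.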
% is set by controls: 0 for no effect and ±100 for the full control effect; potency is the fitted concentration of half-maximal effect; tags give direction and shape of the fitted curve.

Row | Structure (SMILES) | activity change, negative = growth inhibition | Potency
1 | CCN(CC)c1ccc(C(=O)NN)cc1 | inactive: 27.6% | –
2 | O=c1c2cccnc2[nH]c(=S)n1CCCN1CCN(c2ccc(F)cc2)CC1 | – | inconclusive: 6.51 µM [inhibitor, partial curve]
3 | CCOc1ccc2nc(N3CCCC(C(=O)NCCCN4CCOCC4)C3)sc2c1 (centres undefined) | – | inconclusive: 29.1 µM [inhibitor, single point]
4 | O=C(Nc1ccccc1F)c1cnc(N2CCCCC2)c2ccccc12 | – | active: 16.4 µM
5 | NS(=O)(=O)c1cccnc1Nc1cccc(C(F)(F)F)c1 | inactive: -21% | –
6 | O=C1CC[C@@H](C(=O)O)N1 | inactive: 21.3% | –
7 | Cc1nnc(NC(=O)c2ccc(N3CCCC3=O)cc2)s1 | – | inconclusive: 29.1 µM [inhibitor, single point]
8 | CCc1ccccc1NC(=O)c1cc(-c2ccc(Cl)s2)nc2ccccc12 | – | inconclusive: 29.1 µM [inhibitor, single point]
9 | Cc1oc(-c2ccccc2F)nc1Cn1c(SCc2cccc(C(F)(F)F)c2)nc2ccncc21 | – | inconclusive: 11.6 µM [inhibitor, partial curve, poor fit]
10 | O=[N+]([O-])c1ccc(/C=C/c2ccc3cccc(O)c3n2)cc1 | – | active: 20.6 µM
11 | Cc1cc2c(cc1S(=O)(=O)Nc1ccc(C(C)C)cc1)OCCN2C | – | inconclusive: 16.4 µM [inhibitor, single point]
12 | Cc1cccc(NC(=O)CCCSc2nc3ccccc3[nH]2)c1 | – | inconclusive: 29.1 µM [inhibitor, single point]
13 | CCn1nnnc1NCc1c(OC)ccc2ccccc12 | inactive: -4.37% | –
14 | O=C(NCc1ccccc1)NC(=O)c1ccccc1F | inactive: -5.42% | –
15 | COc1cc2c(CCNC(C)=O)c[nH]c2cc1O | inactive: -2.56% | –
16 | COc1ccc(N(CC(=O)Nc2cc(OC)cc(OC)c2)S(=O)(=O)c2c(C)noc2C)cc1 | – | active: 7.31 µM
17 | Cc1ccc(C(c2nnnn2C(C)(C)C)N2CCC(C)CC2)cc1 (centres undefined) | – | inconclusive: 18.4 µM [inhibitor, single point]
18 | Cc1ccccc1OC(C)C(=O)N1CCC(Cc2ccccc2)CC1 (centres undefined) | – | inconclusive: 23.1 µM [inhibitor, single point]
19 | Cc1ccc2c(C)c(C(=O)NCC3CCOCC3)oc2c1C | – | inconclusive: 29.1 µM [inhibitor, single point]
20 | COc1nnc(-c2ccc(C)c(S(=O)(=O)N(C)C)c2)c2ccccc12 | – | inconclusive: 7.31 µM [inhibitor, partial curve]
21 | Oc1ccc(Cl)cc1/C=N/c1nccs1 | – | active: 12.6 µM
22 | COc1ccccc1-c1nnc(C2CCN(C(=O)c3ccccc3C)CC2)o1 | – | inconclusive: 9.2 µM [inhibitor, single point]
23 | COc1ccc(C2c3c(ncn(Cc4ccco4)c3=N)Oc3ccc4ccccc4c32)cc1 (centres undefined) | – | inconclusive: 23.1 µM [inhibitor, single point]
24 | COc1ccc(-c2cc(NC=O)c3ncc(-c4cnn(C)c4)n3c2)cc1 | – | inconclusive: 16.4 µM [inhibitor, single point]
25 | NC(COCc1ccccc1)c1csc(Nc2nncc3ccccc23)n1 (centres undefined) | – | inconclusive: 29.1 µM [inhibitor, single point]

Row | Structure (SMILES) | activity change, negative = growth inhibition | Potency
26 | O=C(CNC(=O)c1cccs1)Nc1ccc2c(c1)OCCO2 | inactive: -19.3% | –
27 | COc1ccccc1NC(=O)c1cc2c(=O)n(Cc3cccs3)ccc2nc1C | – | inconclusive: 29.1 µM [inhibitor, single point]
28 | Cc1cccc(-n2cnc3cc(C(=O)NCc4ccccc4Cl)ccc32)c1 | – | active: 16.4 µM
29 | Cc1ccc(C(C)C)c(OCC(=O)Nc2cc(-c3nc4ccccc4[nH]3)ccc2C)c1 | – | active: 4.61 µM
30 | CNS(=O)(=O)c1cccc(C(=O)OCc2csc(-c3ccccc3)n2)c1 | – | inconclusive: 29.1 µM [inhibitor, single point]
31 | CC(C)C(=O)NCCc1nc2ccccc2n1CCc1ccccc1 | – | inconclusive: 13 µM [inhibitor, single point]
32 | Cc1ccc(O)c(NC(=O)CCS(=O)(=O)c2nc(-c3cccs3)cc(C(F)(F)F)n2)c1 | – | active: 2.59 µM
33 | C#CC(C)(CC)NC(=O)c1cc2nc(C3CC3)cc(C(F)(F)F)n2n1 (centres undefined) | inactive: 1.6% | –
34 | CCN(Cc1nc2cc(OC)c(OC)cc2c(=O)[nH]1)C(=O)c1ccc(S(=O)(=O)N(C)C)cc1 | inconclusive: -34.5% [inhibitor] | –
35 | Cn1ncc(Br)c1NC(=O)CSc1ccc(Cl)cc1 | – | inconclusive: 23.1 µM [inhibitor, single point]
36 | FC(F)(F)c1cc(-c2ccc(Cl)cc2)nc2ncnn12 | inactive: -12.4% | –
37 | CCc1cccc2c1Sc1ccccc1CC2N1CCNCC1 (centres undefined) | – | active: 16.4 µM
38 | COc1ccc(/C=N/NC(=O)c2csc(-n3nc(C)cc3C(F)(F)F)n2)cc1 | – | inconclusive: 29.1 µM [inhibitor, single point]
39 | c1ccc(C(c2ccccc2)N2CCN(c3nc4ccccc4n4cnnc34)CC2)cc1 | – | inconclusive: 8.2 µM [inhibitor, partial curve, poor fit]
40 | COc1cccc(-c2cc3nc(-c4ccccc4)cc(N4CCN(C(=O)c5ccoc5)CC4)n3n2)c1 | – | active: 7.31 µM
41 | CCC(=O)Nc1cccc(NC(=S)NC(=O)c2ccc(Cl)cc2Cl)c1 | – | inconclusive: 29.1 µM [inhibitor, single point]
42 | COC(=O)c1ccc(NC(=O)C2CCN(c3ncnc4c3nc3n4CCCCC3)CC2)cc1 | – | inconclusive: 16.4 µM [inhibitor, single point]
43 | O=C1C2C3C=CC(c4ccccc4)(C2C(=O)N1c1cccc(Cl)c1)C1C(=O)N(c2cccc(Cl)c2)C(=O)C31 (centres undefined) | – | active: 14.6 µM
44 | CCOc1ccc(OCc2ccc(C(=O)N(CC)CC)cc2)cc1 | – | inconclusive: 29.1 µM [inhibitor, single point]
45 | CC(=O)N1CCc2cc(S(=O)(=O)NCCC3=CCCCC3)ccc21 | – | active: 9.2 µM
46 | COc1cccc(-c2nc(CS(=O)(=O)CC(=O)Nc3cccc(C(C)=O)c3)c(C)o2)c1 | – | inactive and inconclusive: 29.1 µM [inhibitor, single point]
47 | Cc1cc(C2=CC(=O)C[C@H](c3ccc4c(c3)OCO4)C2)ccc1F | inactive: -18.4% | –
48 | COc1ccccc1-c1cn[nH]c1-c1ccc(OCc2ccccc2F)cc1O | – | active: 18.4 µM
49 | O=[N+]([O-])c1ccc(C2OCCO2)cc1CS(=O)(=O)c1ccccc1 | inactive: 22.8% | –
50 | COC(=O)c1ccc(/C=N/Nc2nc3ccccc3[nH]2)cc1 | inconclusive: -39.5% [inhibitor] | –

Row | Structure (SMILES) | activity change, negative = growth inhibition | Potency
51 | Nc1cccn2c(-c3ccc(Cl)c(Cl)c3)cnc12 | – | inconclusive: 23.1 µM [inhibitor, single point]
52 | O=C(Nc1ccc2c(c1)OCO2)C1CCCCN1S(=O)(=O)c1ccccc1 (centres undefined) | – | inconclusive: 29.1 µM [inhibitor, single point]
53 | CC(=O)Nc1cccc(-c2ccnc3c2CC(C)(C(=O)Nc2cccc(C(F)(F)F)c2)O3)c1 (centres undefined) | – | active: 13 µM
54 | NCCCn1c(C(=O)c2cc(Cl)c(N)c(Cl)c2)c2ccccc2[n+]1[O-] | – | inconclusive: 29.1 µM [inhibitor, single point]
55 | N#CC1=C2SC=C(c3ccc(Br)cc3)N2CCCC1=O | – | inconclusive: 20.6 µM [inhibitor, single point]
56 | Cc1cccn2c(=O)nc(SCC(=O)NCc3ccccc3Cl)nc12 | inactive: -0.21% | –
57 | Cc1cc(C)cc(Nc2cc(C(=O)NC3CCCCC3)c3ccccc3n2)c1 | – | inconclusive: 0.326 µM [inhibitor, full curve, poor fit]
58 | Cc1ccccc1C(N)c1ccncc1 (centres undefined) | inactive: -6.65% | –
59 | Cc1ccc(C(=O)Nc2nnc(-c3ccc(C(C)(C)C)cc3)s2)cc1 | – | inconclusive: 4.61 µM [inhibitor, full curve]
60 | Cc1cc(Nc2nc3ccccc3c3nnc(C)n23)ccc1Br | – | inconclusive: 29.1 µM [inhibitor, single point]
61 | COc1ccccc1OCCn1c(CCNC(=O)C2CCCCC2)nc2ccccc21 | – | inconclusive: 35.5 µM [inhibitor, single point]
62 | Cc1cc(C)cc(NC(=O)CSc2c(C(C)C)cnc3c2c(=O)n(C)c(=O)n3C)c1 | – | inconclusive: 29.1 µM [inhibitor, single point]
63 | Cc1[nH]nc(-c2ccc(O)cc2O)c1-c1ccc(Cl)cc1 | – | inconclusive: 10.3 µM [inhibitor, partial curve]
64 | CN1CCN(C(=O)CC2(CC(=O)O)CCCC2)CC1 | inactive: 0.487% | –
65 | COc1ccccc1/C=C/C1(C(=O)NC2CCCC2)CC(=O)N1c1ccccc1 (centres undefined) | – | active: 6.51 µM
66 | COc1ccc(C(=O)NC2CCCc3c2cnn3-c2cc(F)cc(F)c2)c(OC)c1OC (centres undefined) | – | active: 16.4 µM
67 | COc1cccc2[nH]c(C(=O)NCCc3ccccc3)cc12 | inactive: -1.97% | –
68 | Cc1ccc(CN2C(=O)C(CC(C)C)Nc3ncnc(N4CCOCC4)c32)cc1 (centres undefined) | – | inactive
69 | CCOC(=O)c1cc(C)n(CC2CCC(C(=O)Nc3ccc(OC)cc3)CC2)c1C (centres undefined) | – | active: 14.6 µM
70 | CC(C)C1C(=O)N(Cc2cn(CCC3OCCCO3)nn2)CCS(=O)(=O)N1Cc1ccc(-c2ccc(Cl)c(Cl)c2)cc1 (centres undefined) | – | active: 23.1 µM
71 | Cc1c(CC(=O)NCCCC(=O)O)c(=O)oc2cc3c(cc12)CCC(C)(C)O3 | – | inconclusive: 32.6 µM [inhibitor, single point]
72 | Cc1nn(C)c(Oc2ccccc2)c1CCNC(=O)CCl | – | inconclusive: 20.6 µM [inhibitor, single point]
73 | CCc1cccc(CC)c1NC(=O)CN1CC(C)SC1=NC1CCCCC1 (centres undefined) | – | active: 20.6 µM
74 | CCCCc1ccc(C(=O)Nc2ccc3nc(N4CCN(CC)CC4)cc(C)c3c2)cc1 | – | active: 3.66 µM
